Some of the results follow. Values were computed here from the reads of four pooled replicates and scatter widely.
Molecular target: T1, Pho4 (S. cerevisiae) (UniProt P07270)
T1 sequence: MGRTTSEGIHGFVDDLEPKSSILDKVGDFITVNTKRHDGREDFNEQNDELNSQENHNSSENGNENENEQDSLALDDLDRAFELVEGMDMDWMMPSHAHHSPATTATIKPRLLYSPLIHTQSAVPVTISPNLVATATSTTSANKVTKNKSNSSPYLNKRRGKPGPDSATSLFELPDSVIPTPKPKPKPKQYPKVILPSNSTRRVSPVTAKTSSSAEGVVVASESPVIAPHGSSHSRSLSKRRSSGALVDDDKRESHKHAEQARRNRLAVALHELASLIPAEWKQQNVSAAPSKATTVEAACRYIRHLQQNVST
Assay: relative binding free energy (BET-seq); higher = weaker binding
Settings: reference: library average

Relative binding free energy, 0.16 kcal/mol:
TCAGTCACGTGATGAG
GTGGTCACGTGCTATA
CTGAGCACGTGAAGGT
GTGATCACGTGGTGGT
TAATGCACGTGATACG
GATTTCACGTGTTATA

Relative binding free energy, 0.05 kcal/mol:
GTTAACACGTGGAGGG
TTTTGCACGTGTATAA
CTGGACACGTGTCTGG

Relative binding free energy, -0.13 kcal/mol:
GGCAGCACGTGGGCGC
CGGCGCACGTGGTATT
TGTGGCACGTGTTCTC
CGACGCACGTGGGTAG
GGGACCACGTGGTGAG

Relative binding free energy, 0.23 kcal/mol:
TAGTACACGTGATGGA
TTTGTCACGTGAGTGC
TCATTCACGTGGGAGT
GTTTGCACGTGAGTGC
TGAGGCACGTGAGGAT

Relative binding free energy, 0.1 kcal/mol:
TGCGTCACGTGTTAGC
AGATTCACGTGGGGGC
ATAGGCACGTGAGGGT
TGTTGCACGTGACTGC

Relative binding free energy, 0.25 kcal/mol:
ATGGTCACGTGATGGG
ATGGACACGTGTTTAC
TTGGTCACGTGACGGT

Relative binding free energy, 0.33 kcal/mol:
GTTTGCACGTGATGGA
TTTCTCACGTGTGATG

Relative binding free energy, -0.35 kcal/mol:
GGCGGCACGTGGGCTT

Relative binding free energy, 0.32 kcal/mol:
TGGTTCACGTGTTAGT
GTCTTCACGTGATGGT
GGTTTCACGTGTGCCT
GTTTTCACGTGGGAGG

Relative binding free energy, 0.02 kcal/mol:
TGTGACACGTGGGGAC
AGGGTCACGTGGTGCT
TGTAGCACGTGCGTCT

Relative binding free energy, 0.17 kcal/mol:
CGGGGCACGTGAATGC
GGGAACACGTGGTTTC
TGGTGCACGTGATTGC

Relative binding free energy, -0.29 kcal/mol:
TGGGGCACGTGCAAGG
AGCGGCACGTGCTGTG

Relative binding free energy, 0.13 kcal/mol:
GAATTCACGTGCGGGG
GTTACCACGTGGGTTT
AGTGTCACGTGATATA

Relative binding free energy, 0.14 kcal/mol:
ATGTTCACGTGCATTA
GTGAACACGTGATTGG

Relative binding free energy, -0.02 kcal/mol:
GTAGACACGTGGTGGT
GGGGGCACGTGTTAAA
GGTCGCACGTGCAGGG

Relative binding free energy, 0.35 kcal/mol:
GAGCTCACGTGGGGGC
AAGTTCACGTGCTGGT

Relative binding free energy, 0.08 kcal/mol:
TGAGGCACGTGAGCAG
TGAATCACGTGTTTGG
TGTGCCACGTGGTTCG
GTGTCCACGTGTGTTG
GGCGACACGTGGGTTT
GTTGTCACGTGGAGCT

Relative binding free energy, 0.01 kcal/mol:
TAGTCCACGTGGCGGG
AATGTCACGTGGTTCG
GTGGTCACGTGGGTGA
AAGGACACGTGTGGGG
CGCTGCACGTGTTAGG
GAGGCCACGTGACGGG
GGGCGCACGTGCTCGG
TGATCCACGTGTGGGT
TATTCCACGTGGTTAA
GTGCACACGTGGGAGA

Relative binding free energy, 0.39 kcal/mol:
GATTTCACGTGTCTAT
ATTTTCACGTGTGGAA

Relative binding free energy, 0.28 kcal/mol:
TTTTTCACGTGCGGCG
CAATTCACGTGTGGTA
ATTTGCACGTGAGGGT
ATGTTCACGTGAATTT

Relative binding free energy, -0.21 kcal/mol:
ATGGGCACGTGTTCAG

Relative binding free energy, 0.29 kcal/mol:
CGGGTCACGTGAGGGG
GAGTTCACGTGGGGCA
GGCGGCACGTGAGGAT

Relative binding free energy, -0.14 kcal/mol:
GTTGCCACGTGGTGGT

Relative binding free energy, 0.22 kcal/mol:
ATGTACACGTGATGAT
GTGTGCACGTGAGGGG
GTAGTCACGTGTAATA

Relative binding free energy, -0.11 kcal/mol:
CTGGCCACGTGGGTTA
TAGGACACGTGGGCGT
CGGGGCACGTGGAGTC

Relative binding free energy, -0.05 kcal/mol:
GGACGCACGTGTAGTT
GTCTGCACGTGGGTTT
CATGGCACGTGATGGG
GGCAGCACGTGTTGGG
TTAAACACGTGTGTCT

Relative binding free energy, 0.12 kcal/mol:
GTTTGCACGTGGATCG
AAAAACACGTGTGGGT
GTTTGCACGTGTGTGG
TTATACACGTGTGGTT
CTTGTCACGTGTTTAA
AAAGACACGTGTGGGT

Relative binding free energy, 0.24 kcal/mol:
TTCATCACGTGTCTTT
TTGGTCACGTGATAAG
AAGTTCACGTGTAGAA
GAAGTCACGTGTGAGA
GGGGTCACGTGTGAAA

Relative binding free energy, 0.27 kcal/mol:
TGTTACACGTGAGGCG

Relative binding free energy, -0.08 kcal/mol:
AGCAGCACGTGGGTAT
AGGAGCACGTGGTTAA
GAGGGCACGTGTACGG
CTTTACACGTGGTGTA
TTAACCACGTGGGGTT
GGAGGCACGTGGACGG

Relative binding free energy, 0.49 kcal/mol:
GCTTACACGTGAGTTA

Relative binding free energy, 0.26 kcal/mol:
TGAATCACGTGGAGTA

Relative binding free energy, -0.06 kcal/mol:
TCAGGCACGTGCTTGT
TGAGGCACGTGATGGC
AAGAGCACGTGATAGG
TCAGACACGTGGGTTG
AGTGTCACGTGCGGCT
ACGTACACGTGGTAGT

Relative binding free energy, -0.07 kcal/mol:
CTGAGCACGTGTGGGA
GTGGACACGTGGCAGT
CGTAACACGTGGTGGC
GGGAGCACGTGTAAGG
GTGGCCACGTGGAGTT

Relative binding free energy, -0.23 kcal/mol:
TATGGCACGTGGGTAC

Relative binding free energy, 0.03 kcal/mol:
TAAGTCACGTGGGCAT
AGAGGCACGTGTGACT
GAGTGCACGTGTGCGT
ATGATCACGTGTTATT
CGATGCACGTGTATTG
TTATGCACGTGCAGCG
GCTGTCACGTGGGCGC

Relative binding free energy, 0.18 kcal/mol:
ACTTTCACGTGGGATT
TTGATCACGTGTAGTC

Relative binding free energy, 0.09 kcal/mol:
TGTATCACGTGGCGTG
TAGGTCACGTGCGGAG
CTTTACACGTGTGTGG
CGTGTCACGTGTGGGT

Relative binding free energy, 0 kcal/mol:
CATTGCACGTGCTTGG
GTATCCACGTGTTGAT
TAGTACACGTGTATAG
CAGGACACGTGTTGTT
TTTAACACGTGTTTAC

Relative binding free energy, 0.11 kcal/mol:
ATGAGCACGTGTAGGA
GTAAGCACGTGTGTAC
GAGGACACGTGTGTAA
GGTGTCACGTGGCATA
AGGAACACGTGGAGCG

Relative binding free energy, -0.16 kcal/mol:
TTTGACACGTGGTGAT

Relative binding free energy, 0.36 kcal/mol:
AGTTGCACGTGAATGT

Relative binding free energy, 0.34 kcal/mol:
GGTGACACGTGAAGTG
CTAGTCACGTGAGGCT
TTTTTCACGTGGCGTT

Relative binding free energy, -0.12 kcal/mol:
CTTTGCACGTGTTTGC
TTGGGCACGTGTTTGT
CGTGGCACGTGTTAGG

Relative binding free energy, -0.18 kcal/mol:
GATAACACGTGGGGTG
TTTAGCACGTGTGCTA

Relative binding free energy, -0.4 kcal/mol:
ATGGGCACGTGGCTGA

Relative binding free energy, -0.19 kcal/mol:
TGCGCCACGTGGAGTG
CGTAGCACGTGGGGTC
GGAAGCACGTGGGGAG
GCCGGCACGTGGGGGA

Relative binding free energy, 0.3 kcal/mol:
GTAGACACGTGTGTAC

Relative binding free energy, 0.31 kcal/mol:
GATTTCACGTGCGTTA
GGCTTCACGTGGCGTG
AATCTCACGTGATGGG
ATTTTCACGTGCTGAA
TCAGTCACGTGATAGT
GGGGTCACGTGATGGA

Relative binding free energy, 0.04 kcal/mol:
CTTGTCACGTGGTTAT
CGGACCACGTGGTGGA
AGGGGCACGTGATTAT
TAGTACACGTGTTTTG
TGTATCACGTGGTGTT

Relative binding free energy, 0.44 kcal/mol:
TTTATCACGTGAACTT

Relative binding free energy, -0.03 kcal/mol:
GCGTACACGTGGGGCT
GGGCGCACGTGTGCTT
TAGGTCACGTGGGTGG

Relative binding free energy, 0.06 kcal/mol:
TTGGACACGTGTATAG
GGGGTCACGTGGCCTG
GTGGGCACGTGACGAG
ATAATCACGTGGTTGG
TGTATCACGTGTTAGC

Relative binding free energy, 0.38 kcal/mol:
TAGTTCACGTGGAATT
GAGTTCACGTGCTGTT

Relative binding free energy, 0.2 kcal/mol:
GGTTCCACGTGATTGT

Relative binding free energy, -0.09 kcal/mol:
TGTGACACGTGCCTGG
TAAAACACGTGGTATG
GTGATCACGTGGGGCT
TTGCCCACGTGTGGGT
TGAGGCACGTGCAGGG

Relative binding free energy, -0.1 kcal/mol:
TGTCGCACGTGCCGGG
AAATACACGTGGGAGG
TAGTGCACGTGGTGTT
ATTGGCACGTGTTTGA
GCGGGCACGTGCGGGT
ATGCACACGTGGTTGG
AGACGCACGTGTGTGG

Relative binding free energy, 0.15 kcal/mol:
TCTGGCACGTGAGGTA
CTAATCACGTGTGTTG
TATCTCACGTGGGTTT

Relative binding free energy, 0.19 kcal/mol:
GGTGTCACGTGTTTGA
AATAGCACGTGAGTTT
TATTGCACGTGAAAGT
AAGGTCACGTGCTGCG
TGTTTCACGTGGCTGG
ACGTTCACGTGATGGT

Relative binding free energy, 0.07 kcal/mol:
AGCGGCACGTGTTTAA
TTTGCCACGTGTGGAG
TTAATCACGTGGCTTA
GGGGCCACGTGTTCTT

Relative binding free energy, -0.17 kcal/mol:
AGGGCCACGTGGGGGA
TTTGGCACGTGGAGTA

Relative binding free energy, -0.22 kcal/mol:
CACTGCACGTGGGTGG
TACAGCACGTGGGCTG

Relative binding free energy, -0.04 kcal/mol:
TAGAGCACGTGGATTG
GAAGGCACGTGTGTGC
ATTCGCACGTGTAGTG

Relative binding free energy, 0.42 kcal/mol:
GTGCTCACGTGAGAGG
TAGGTCACGTGAATTC

Relative binding free energy, 0.21 kcal/mol:
GCTTGCACGTGGAGAT
AGCTGCACGTGATGGT
TGTGTCACGTGATTAA

Relative binding free energy, -0.01 kcal/mol:
ATCGACACGTGTAGGG
CGTGTCACGTGTAGTA
TGTGCCACGTGATTTG
GCTTGCACGTGCGTGG
GGTAACACGTGCTGGG
GAAGGCACGTGGAGGT
TAGGACACGTGGGGCA
ATGGCCACGTGTTTTG
CTAATCACGTGGGTGG

Relative binding free energy, 0.43 kcal/mol:
AGCTTCACGTGTAATT

Reference: the BET-seq Pho4 binding data (Le et al. 2018)
